# Results: PubChem BioAssay AID1508623 (National Center for Advancing Translational Sciences (NCATS), 2021)
# About 450 (0.94%) of roughly 48,000 compounds were called active. This list was built around the results that the source calls inconclusive (neither active nor inactive); the mix of calls is not that of the screen. The call rests on the fitted dose curve; in most records, active means well fitted inhibition curve with a large enough effect; inconclusive means small, poorly fitted or top-dose-only effect; inactive means no such curve, though single readings can be large or run the other way. Where the call is inconclusive, the potency comes from a doubtful curve fit.
# Assay: Primary qHTS for Identification of Small Molecule Inhibitors of Huntingtin Promoter Activity; further: nearly all actives have a fitted effect of over 50% in size
# Settings: HEK293 HTT promoter firefly luciferase reporter (activity 0% = vehicle and -100% = no light), 24 h; activity change, negative = inhibition: at 57.5 µM (top of the series)
# Outline: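 Luminescence was read after Dual-Glo reagent and a 10 min room-temperature incubation. Values were normalized to vehicle (0% activity) and zero RLU (-100% activity). Reporter HEK293 cells had been exposed to compounds (up to 57.5 uM final) for 24 h.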
# Potency means the concentration at half of the fitted maximal effect; tags describe the fitted curve by direction and shape.
Structure (SMILES),Potency,"activity change, negative = inhibition"
COc1ccc(Nc2ncnc3c2cnn3-c2cc(Cl)ccc2C)cc1OC,inactive,
CCOC(=O)c1ccc(NC(=O)CCCn2nc(C)c3sc4ccccc4c3c2=O)cc1,inactive,
CCCc1oc2ccc(NS(=O)(=O)c3ccc(OCC)cc3)cc2c1C(=O)OCC,"inconclusive: 17.8 µM [inhibitor, partial curve, poor fit]",
Cc1ccc(C(=O)OC2=C(C(=O)c3ccccc3)N(C)S(=O)(=O)c3ccccc32)cc1,"inconclusive: 28.2 µM [inhibitor, single point]",
Cc1nc2cc(-c3ccc(Cl)cc3)nn2c(C)c1CCC(=O)N1CCN(c2ccccc2)CC1,active: 1 µM,
CS(=O)(=O)c1ncc(Cl)c(C(=O)N2CCN(c3cccc(Cl)c3)CC2)n1,"inconclusive: 28.2 µM [inhibitor, partial curve, poor fit]",
Cc1ccc(-c2onc(C)c2C)cc1S(=O)(=O)N1CCC(C)CC1,"inconclusive: 22.4 µM [inhibitor, partial curve, poor fit]",
COc1ccc(Cl)cc1NC(=O)c1ccc(CN2C(=O)CCn3nc(C)cc32)cc1,"inconclusive: 39.8 µM [inhibitor, single point]",
COc1ccc(C2c3c(n(C)c4ccccc34)C(=O)N2CC(=O)Nc2c(C)cc(C)cc2C)cc1 (centres undefined),"inconclusive: 10 µM [inhibitor, partial curve]",
CCOc1ccccc1CNC(=O)C(CC)n1nc(C)c2c(C)n(-c3ccccc3)nc2c1=O (centres undefined),"inconclusive: 14.1 µM [inhibitor, partial curve]",
CCOC(=O)N1CCC(NC(=O)c2ccc3c(c2)N(Cc2ccccc2)C(=O)c2ccccc2S3(=O)=O)CC1,inactive,
CCN(CC)S(=O)(=O)c1ccc(NC(=O)c2nn(C)c3c2CSc2ccccc2-3)cc1,"inconclusive: 35.5 µM [inhibitor, single point]",
Fc1ccc(Nc2nc(SCc3cccc(F)c3)nc3ccccc23)cc1,"inconclusive: 31.6 µM [inhibitor, single point]",
CCOC(=O)c1ccc(N2C(=O)c3[nH]nc(-c4ccc(C)cc4)c3C2c2ccc(O)cc2)cc1 (centres undefined),"inconclusive: 39.8 µM [inhibitor, single point]",
CCN(CCCNC(=O)CSc1cc(=O)n(CC)c2ccccc12)c1ccccc1,inactive,
Oc1ccc2ccccc2c1SSc1c(O)ccc2ccccc12,"inconclusive: 34.3 µM [inhibitor, partial curve]",
CCc1ccc(NC(=O)Nc2cn(C)c(=O)c3ccccc23)cc1,"inconclusive: 22.4 µM [inhibitor, partial curve, poor fit]",
CCc1ccc(CNC(=O)Cn2ccc3cc(S(=O)(=O)N4CCCCCC4)ccc32)cc1,"inconclusive: 20 µM [inhibitor, partial curve, poor fit]",
CCOC(=O)N1CCN(Cc2nc3cc(NC(=O)CC)ccc3n2C(C)C)CC1,"inconclusive: 3.98 µM [inhibitor, partial curve, poor fit]",
COc1ccc(NC(=O)Cn2cnc3ccc(S(=O)(=O)N4CCC(C)CC4)cc3c2=O)c(OC)c1,inactive,

Structure (SMILES),Potency,"activity change, negative = inhibition"
COc1cccc(CNC(=O)c2ccc(-c3nc(CS(=O)c4ccccc4)c(C)o3)cc2)c1 (centres undefined),"inconclusive: 20 µM [inhibitor, partial curve, poor fit]",
COc1ccc(/C=C/C(=O)Nc2ccc(C)cc2)cc1,,inactive: -13.3% [at 11.5 µM]
CCOC(=O)c1ccc(N2C(=O)c3n[nH]c(-c4ccco4)c3C2c2ccc(OC)cc2OC)cc1 (centres undefined),"inconclusive: 39.8 µM [inhibitor, single point]",
COc1cccc(-c2nc(S(=O)(=O)c3ccc(C)cc3)c(N3CCCCCC3)o2)c1,"inconclusive: 28.2 µM [inhibitor, single point]",
O=C(Nc1ccc(Oc2ccccc2)cc1)c1ccc(F)c(S(=O)(=O)N2CCN(c3cccc(Cl)c3)CC2)c1,"inconclusive: 1.41 µM [inhibitor, full curve, poor fit]",
CCOC(=O)c1ccc(NC(=O)CN(Cc2ccc(C)cc2)S(=O)(=O)c2ccc(C)cc2)cc1,"inconclusive: 28.2 µM [inhibitor, single point]",
COc1ccc(OC)c(-c2nnc3ccc(-c4ccc(OC)c(O[C@@H]5CCOC5)c4)nn23)c1,"inconclusive: 43.2 µM [inhibitor, single point]",
Cc1ccc(C)c(N2C(=O)N(Cc3ccccc3C)c3ccccc3S2(=O)=O)c1,"inconclusive: 31.6 µM [inhibitor, partial curve, poor fit]",
O=C(Nc1nc2c(Cl)cccc2s1)c1ccc(S(=O)(=O)N2CCc3ccccc32)cc1,"inconclusive: 11.2 µM [inhibitor, partial curve]",
O=C(CSc1oc(-c2ccccc2)nc1S(=O)(=O)c1ccc(Br)cc1)c1ccccc1,"inconclusive: 39.8 µM [inhibitor, single point]",
COc1ccc(NC(=O)c2ccco2)cc1NC(=O)COc1cccc(C)c1C,"inconclusive: 31.6 µM [inhibitor, partial curve, poor fit]",
O=C(Nc1ccc(Br)cc1)c1ccc(F)c(S(=O)(=O)NC2CCCCCC2)c1,"inconclusive: 8.91 µM [inhibitor, partial curve, poor fit]",
Cc1cc(-c2ccc(C)c(S(=O)(=O)Nc3cccc(C)n3)c2)on1,"inconclusive: 22.4 µM [inhibitor, single point]",
Cc1ccc2c(c1)N(C(=O)N1CCC(C(=O)NCc3cccc(Br)c3)CC1)CCO2,"inconclusive: 25.1 µM [inhibitor, single point]",
CCN(CC)c1cc(C)c2cc(NC(=O)c3cccc(OC)c3OC)ccc2n1,inactive,
CCOc1ccc(NC(=O)c2c(C)nn(-c3ccc(F)cc3)c2-n2cccc2)cc1,inactive,
Cc1nn(-c2ccccc2)c2nc(C3CC3)cc(C(=O)Nc3ccc(F)cc3)c12,"inconclusive: 25.1 µM [inhibitor, single point]",
CCc1c(C)sc2c1CCN(Cc1ccccc1)C2c1ccccc1 (centres undefined),"inconclusive: 25.1 µM [inhibitor, partial curve, poor fit]",
CCn1nc(C)c2c(-c3ccccc3)cc(=O)n(C(C)C(=O)Nc3cccc(F)c3)c21 (centres undefined),"inconclusive: 39.8 µM [inhibitor, single point]",
Cc1ccn2c(Nc3ccccc3C)c(-c3ccc(N4CCOCC4)cc3)nc2c1,inactive,

Structure (SMILES),Potency,"activity change, negative = inhibition"
Cc1ccccc1CCNC(=O)c1ccc(NC(=O)N2CC(C)Sc3ccccc32)cc1 (centres undefined),"inconclusive: 22.4 µM [inhibitor, partial curve, poor fit]",
COc1ccc(N2CCN(C(=O)C3CCN(Cc4nc(-c5ccc(Cl)cc5)oc4C)CC3)CC2)cc1,inactive,
COc1ccc(CNc2nc(-c3ccc(OC)cc3)cc(C(F)(F)F)n2)cc1,"inconclusive: 25.1 µM [inhibitor, single point]",
CCCSc1ncc(Cl)c(C(=O)Nc2ccc(S(=O)(=O)N3CCC(C)CC3)cc2)n1,"inconclusive: 28.2 µM [inhibitor, partial curve]",
O=C(Cn1nc(Cc2ccncc2)c2ccccc2c1=O)Nc1cccc(C(F)(F)F)c1,"inconclusive: 17.8 µM [inhibitor, single point]",
Cc1ccc(CSCCC(=O)N2CCN(c3ccc(F)cc3)CC2)cc1,"inconclusive: 22.4 µM [inhibitor, single point]",
CC(C)c1cc(-c2n[nH]c(=O)n2-c2ccc3c(ccn3C)c2)c(O)cc1O,"inconclusive: 0.306 µM [inhibitor, full curve]",
CCn1c(=O)cc(OCC(=O)N2CCN(c3ccc(C(C)=O)cc3)CC2)c2ccccc21,inactive,
CN(C(=O)c1c[nH]c2ccc(S(=O)(=O)Nc3cccc(C(F)(F)F)c3)cc2c1=O)C1CCCCC1,inactive,
CN(C)S(=O)(=O)c1ccc(C(=O)NCCSc2c(-c3ccc(Br)cc3)[nH]c3ccccc23)cc1,"inconclusive: 22.4 µM [inhibitor, single point]",
Cc1ccc(NC(=O)C2CCCN(c3ncnc4onc(C)c34)C2)c(Cl)c1 (centres undefined),"inconclusive: 2.24 µM [inhibitor, partial curve, poor fit]",
COc1cc(OC)cc(C(=O)Nc2ccc3nc4c(c(Nc5ccc(OC)c(OC)c5)c3c2)CCCC4)c1,"inconclusive: 39.8 µM [inhibitor, single point]",
CCCCc1ccc(Nc2cc(C)nc(-n3nc(C)cc3C)n2)cc1,"inconclusive: 12.6 µM [inhibitor, partial curve, poor fit]",
CSc1ccc(CNC(=O)Cn2c(-c3cccs3)cc3cc(F)ccc32)cc1,"inconclusive: 14.1 µM [inhibitor, partial curve, poor fit]",
O=C(/C=C\c1ccc2c(c1)OCO2)NC1CC(=O)N(c2ccccc2)C1 (centres undefined),"inconclusive: 39.8 µM [inhibitor, single point]",
CCc1sc(Nc2cccc(Cl)c2)nc1-c1cc2cccc(OC)c2oc1=O,"inconclusive: 28.2 µM [inhibitor, single point]",
COc1ccc(NC(=O)CN2C(=O)C(C)(C)c3cc(S(=O)(=O)N4CCCCC4)ccc32)cc1Cl,"inconclusive: 31.6 µM [inhibitor, single point]",
COc1ccc(-c2ccc3ncc4c(c3c2)n(-c2ccc(N3CCNCC3)c(C(F)(F)F)c2)c(=O)n4C)cn1,"inconclusive: 0.0611 µM [inhibitor, full curve]",
CCCn1c(COc2cccc(C)c2)nc2ccccc21,inactive,
